The values below come from publication PMC7819943, “Rice protein-binding microarrays: a tool to detect cis-acting elements near promoter regions in rice”.

Some of the results follow.

The target in this test is T1, OsWOX13 (Oryza sativa, UniProt Q5QMM3 1-267).
T1 sequence: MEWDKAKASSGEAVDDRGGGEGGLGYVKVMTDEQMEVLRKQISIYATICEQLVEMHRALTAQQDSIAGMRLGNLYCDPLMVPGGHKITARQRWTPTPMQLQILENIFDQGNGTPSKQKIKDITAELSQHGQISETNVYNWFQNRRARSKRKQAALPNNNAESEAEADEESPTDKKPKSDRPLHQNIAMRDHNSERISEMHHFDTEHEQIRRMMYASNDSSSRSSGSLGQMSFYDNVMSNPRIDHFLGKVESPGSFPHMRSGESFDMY
The experiment in a line: protein-binding microarray (RPBM); PBS, 2% BSA, 51.3 ng/ul salmon testes DNA, 50 uM zinc acetate, 200 nM TF, 25 C, 1 h; high values mean tight binding. To be noted: protein: recombinant; tags: N-terminal polyhistidine and DsRed monomer fusion (pET32a); label: CyDye5-dUTP incorporated in the synthesized complementary strand; 3' TTTTT single-stranded linker to array surface; dsDNA, one strand shown. Put shortly:
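Polyhistidine-tagged DsRed fusions of transcription factors, joined at the N-terminus, were expressed in E. coli BL21-CodonPlus and isolated on Ni–NTA. They were incubated at 200 nM for 1 h at 25 °C on a custom Agilent array, double-stranded and BSA-blocked, in PBS with 2% BSA, salmon testes DNA and 50 µM zinc acetate. The binding signal is per-feature fluorescence intensity (arbitrary units) read on an Axon 4000B scanner after washing.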
Consider “TAATTGAGTCAATCAATATGCTTCTGAATCTGCTGATCGCCGGAGTCACCTAGTGCAG”, for which the binding signal was 24800 fluorescence intensity (a.u.).
Turning to “AATAAATTAATTTTGAAATTTAAAATCAATAATGGTTTACCGGAGTCACCTAGTGCAG”, the binding signal was 31400 fluorescence intensity (a.u.).
For “TCAAAATCAGTTTGAGTAAATTTTATTTTGGTTCAACTTTCGGAGTCACCTAGTGCAG” the value was 6800 fluorescence intensity (a.u.); for “ATATACATATGTCTAAATTTATACTATAACATATCACTTCCGGAGTCACCTAGTGCAG”, 4850 fluorescence intensity (a.u.).
For the sequence “ACCTGGGCCTAATTAGGCGAGGGCCACTACATGATGCTATCGGAGTCACCTAGTGCAG”, the binding signal was 3780 fluorescence intensity (a.u.).
In the case of “ATTCTCTAATTATTTGATATATGCCTAATAAACCATGAAACGGAGTCACCTAGTGCAG” it was 6740 fluorescence intensity (a.u.); in that of “CGTGATTTTCCTGGGCCCTGTCTCTTGGGCCCCACAGTGGCGGAGTCACCTAGTGCAG”, 6540 fluorescence intensity (a.u.).
For “TACGTAATTAGGAGCTGCCTAAGCGGTCAAGTGCTACTGCCGGAGTCACCTAGTGCAG” the value was 12800 fluorescence intensity (a.u.); for “AGTACAAATGACGGATTAATTAGGCTTAATAAATTCGTCTCGGAGTCACCTAGTGCAG”, 19200 fluorescence intensity (a.u.); for “TCTAGTCATCCGATTTCCAATCAAAATCGTCTAAACCTTCCGGAGTCACCTAGTGCAG”, 4920 fluorescence intensity (a.u.).
For “ATTATAAGTAAATTAATTAACTCGCAAACATTTCAAGCATCGGAGTCACCTAGTGCAG” the value was 14400 fluorescence intensity (a.u.); for “TAAGTGATGAGATTTTCTTTGTTAATGAACAAGGCAAAAGCGGAGTCACCTAGTGCAG”, 3720 fluorescence intensity (a.u.).
In the case of “ACCAATATATATATACTAATTAAATTTGTGGAACTTGGATCGGAGTCACCTAGTGCAG”, the binding signal is 4420 fluorescence intensity (a.u.).
Take “AAAATCCGATTAGTTAATTAGTTAGTTAAGTGATGTGGTACGGAGTCACCTAGTGCAG”: the binding signal is 16200 fluorescence intensity (a.u.).
For “CTTCAACTAATTTGGTTGTCGCTCTTGTCGCATAAGGTTGCGGAGTCACCTAGTGCAG” the value was 6070 fluorescence intensity (a.u.).
Regarding “TACTGTAGACGCAATTGACTAAATAGGGTAAATTGGCTTACGGAGTCACCTAGTGCAG”, the binding signal is 6540 fluorescence intensity (a.u.).
In the case of “CCAAATTGACTAATCAGATTCATAAAAGTCACCAGAACTTCGGAGTCACCTAGTGCAG”, the binding signal is 33300 fluorescence intensity (a.u.).
On to “AAAAGGATTAATTATCATCTAATAACCAGTTCGATTTCCTCGGAGTCACCTAGTGCAG”, for which the binding signal was 12800 fluorescence intensity (a.u.).
For “TCACTTTGGATTGGATAAATTTACCATTGTTGCGATTTGGCGGAGTCACCTAGTGCAG” the value was 13700 fluorescence intensity (a.u.); for “CATGTGATTGGAACCATCGATCGCACATGCGTGGAGCAATCGGAGTCACCTAGTGCAG”, 45900 fluorescence intensity (a.u.); for “TAAATATATTGACTATTGAACTTGCTCTTATGCATATCGCCGGAGTCACCTAGTGCAG”, 7120 fluorescence intensity (a.u.).
As for “ATATAATAATAATATAGATAGATGGGGATCTAATTAAGCACGGAGTCACCTAGTGCAG”, the binding signal is 6650 fluorescence intensity (a.u.).
In the case of “CATCCTAATTGAAACAGAACTCTGCTACTGCCTACTGCTTCGGAGTCACCTAGTGCAG” it was 44400 fluorescence intensity (a.u.).
Regarding “ATAAAATTGTATTTTACCAGTCTTGGAGATTTTAATCTTGCGGAGTCACCTAGTGCAG”, the binding signal is 3730 fluorescence intensity (a.u.).
For “ACAATAGATTAATCGTATAAGACACTAGATTTAACGTGAACGGAGTCACCTAGTGCAG” the value was 6400 fluorescence intensity (a.u.); for “TTTCTAAGATTTGATTTAAACATTGTCCTAAACGACTTACCGGAGTCACCTAGTGCAG”, 12300 fluorescence intensity (a.u.); for “CGATAATTAGAAGTTCTCCCAAATAGGCCCATTGTTTCACCGGAGTCACCTAGTGCAG”, 27700 fluorescence intensity (a.u.).
For the sequence “TCTGTTAATAGATATGTAGACAGTCCCTATATGAAAACAGCGGAGTCACCTAGTGCAG”, the binding signal is 11900 fluorescence intensity (a.u.).
In the case of “ACTTAACAATACTAATCGTCTTTGTCTATACTAATCGAGCCGGAGTCACCTAGTGCAG” it was 4170 fluorescence intensity (a.u.); in that of “TAGCCACCGTGATTGATTGATCTATAGATCGATTGGTGCCCGGAGTCACCTAGTGCAG”, 64000 fluorescence intensity (a.u.).
In the case of “AAATATTGATTTAAGTAGGTGAGAGGTCCCAGTTGATGGACGGAGTCACCTAGTGCAG” it was 15400 fluorescence intensity (a.u.); in that of “CCATTTAGTTGACATACAATAAATGAGTGGGCATCAACCCCGGAGTCACCTAGTGCAG”, 3740 fluorescence intensity (a.u.); in that of “ACAAACATAACATAGAATTTATTTAACTAGCGCTATACATCGGAGTCACCTAGTGCAG”, 3990 fluorescence intensity (a.u.).
In the case of “CACAAAGTTAATCTAATTAAAATTAAAATTTAATACTACACGGAGTCACCTAGTGCAG” it was 3860 fluorescence intensity (a.u.).
Consider “CATCTTTCTAATTAGGACCAAATTTAATGGTCGTCAACACCGGAGTCACCTAGTGCAG”, for which the binding signal was 21400 fluorescence intensity (a.u.).
In the case of “GTGGACCAATCAATTAATAATCTACGTACAACAAGGACCCCGGAGTCACCTAGTGCAG” it was 40600 fluorescence intensity (a.u.); in that of “TAAATTTACTTTTAATAATCATTGCACCAAACTTTGTGAACGGAGTCACCTAGTGCAG”, 4810 fluorescence intensity (a.u.).
As to “AGATTAATTTAAGATTGGTCGAAACTAAAACGTCAATAAACGGAGTCACCTAGTGCAG”, the binding signal is 15300 fluorescence intensity (a.u.).
In the case of “CCTGATTATCCCGTGTCTTCTCCGCTTCTGGGTTGGTTGCCGGAGTCACCTAGTGCAG” it was 31500 fluorescence intensity (a.u.).
In the case of “GAGTTTAATGACTAACTTGTTAATGTTAACCAGGCACGCACGGAGTCACCTAGTGCAG” it was 4800 fluorescence intensity (a.u.).
In the case of “GGGACCATATATCAATTATGCTGACAAGACAATCCATCTGCGGAGTCACCTAGTGCAG” it was 8560 fluorescence intensity (a.u.); in that of “AGGTAATCATATTGTTGTTATTCGTGGATGGGGTGGGCTCCGGAGTCACCTAGTGCAG”, 11100 fluorescence intensity (a.u.).
